Laboratory results taken from publication PMC2764435 (Nucleic Acids Research, 2009).

Tests used:
[1] = biological target: the molecule itself; test: SEC
[2] = biological target: Klebsiella pneumoniae σ^54 (Klebsiella pneumoniae, UniProt P06223); test: native gel or EMSA
[3] = biological target: σ^54G4L (Klebsiella pneumoniae, UniProt P06223, G4L); test: native gel or EMSA

B1: PspF_([…]) F85C (domain or fragment)
chain: not shown
- stoichiometry N [1]: 8

B2: PspF_([…]) F85I (domain or fragment)
chain: not shown
- stoichiometry N [1]: 8

B3: PspF_([…]) F85L (domain or fragment)
chain: not shown
- stoichiometry N [1]: 8

B4: PspF_([…]) F85Q (domain or fragment)
chain: not shown
- stoichiometry N [1]: 8

B5: PspF_([…]) F85H (domain or fragment)
chain: not shown
- stoichiometry N [1]: 8

B6: PspF_([…]) F85W (domain or fragment)
chain: not shown
- stoichiometry N [1]: 8

B7: PspF_([…]) F85Y (domain or fragment)
chain: not shown
- binding result [2]: binds
- binding result [3]: binds
